# Laboratory results: paper PMC4336329 (PLoS ONE, 2015)
# About 2,200 (0.71%) of roughly 310,000 compounds showed an effect of 50% or more. The effect is printed as a negative number. The list shows a part of the results.
# Biological target: human ether-à-go-go-related gene (hERG) potassium channel (human, UniProt Q12809)
# Test: primary screen, population patch clamp on CHO cells stably expressing hERG
# Chain of human ether-à-go-go-related gene (hERG) potassium channel (Q12809 whole entry, looked up): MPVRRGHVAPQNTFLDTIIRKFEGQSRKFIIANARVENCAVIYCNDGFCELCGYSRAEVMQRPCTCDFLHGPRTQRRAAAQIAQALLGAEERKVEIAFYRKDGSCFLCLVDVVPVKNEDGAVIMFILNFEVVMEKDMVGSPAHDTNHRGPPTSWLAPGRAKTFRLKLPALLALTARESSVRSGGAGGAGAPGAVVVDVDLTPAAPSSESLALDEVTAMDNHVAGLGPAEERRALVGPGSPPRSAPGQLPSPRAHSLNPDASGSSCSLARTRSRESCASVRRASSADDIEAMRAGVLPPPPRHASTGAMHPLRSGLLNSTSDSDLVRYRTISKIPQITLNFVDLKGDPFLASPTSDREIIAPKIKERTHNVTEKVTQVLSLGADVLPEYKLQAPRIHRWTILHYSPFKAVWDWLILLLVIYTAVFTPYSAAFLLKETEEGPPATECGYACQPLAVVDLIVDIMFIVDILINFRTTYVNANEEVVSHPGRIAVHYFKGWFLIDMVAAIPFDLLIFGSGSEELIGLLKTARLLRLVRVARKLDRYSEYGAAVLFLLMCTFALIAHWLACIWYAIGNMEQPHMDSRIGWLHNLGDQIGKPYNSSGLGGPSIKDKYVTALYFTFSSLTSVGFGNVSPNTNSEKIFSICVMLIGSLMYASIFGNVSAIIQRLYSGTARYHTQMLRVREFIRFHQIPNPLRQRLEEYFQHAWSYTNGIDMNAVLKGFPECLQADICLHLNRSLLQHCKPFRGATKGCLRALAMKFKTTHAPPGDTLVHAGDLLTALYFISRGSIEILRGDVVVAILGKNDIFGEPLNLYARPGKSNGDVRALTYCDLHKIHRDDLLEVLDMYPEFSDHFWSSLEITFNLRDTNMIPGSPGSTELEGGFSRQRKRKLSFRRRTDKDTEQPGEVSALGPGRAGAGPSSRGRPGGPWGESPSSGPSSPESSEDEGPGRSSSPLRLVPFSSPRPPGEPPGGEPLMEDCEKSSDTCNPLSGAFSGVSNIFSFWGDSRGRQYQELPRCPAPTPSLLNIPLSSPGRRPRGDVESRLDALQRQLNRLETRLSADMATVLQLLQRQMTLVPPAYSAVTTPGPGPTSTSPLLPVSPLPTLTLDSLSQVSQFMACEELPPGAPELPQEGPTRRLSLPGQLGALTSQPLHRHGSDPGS
row,Compound,"hERG current change (%, negative = inhibition) at 1uM"
1,CC(NC(=O)/C=C/c1ccco1)c1nc2ccccc2n1Cc1c(Cl)cccc1Cl (stereo not drawn),1.8%
2,COc1ccc(/C=N/NC(=O)c2nc(-c3ccccc3)cc(-c3ccccc3)n2)cc1O,5.41%
3,N/C(=N\OC(=O)CC1CCCCC1)c1cccnc1,-2.21%
4,COC(=O)c1ccc(CNC(=O)c2ccc(S(=O)(=O)N3CCCC(C)C3)cc2)cc1 (stereo not drawn),8.14%
5,COC(=O)[C@]1(CC(C)C)N[C@H](c2ccc(-c3ccc4c(c3)OCO4)cc2)[C@@H]2C(=O)N(C)C(=O)[C@@H]21.O=C(O)C(F)(F)F,11.9%
6,COc1ccc(-c2nnc(SCc3nnc(-c4ccc(Cl)cc4)o3)n2-c2ccccc2)cc1,6.82%
7,O=C(COC(=O)c1cccc(C(=O)OCC(=O)NC2CC2)n1)NC1CC1,10.5%
8,Cc1ccc(CC(=O)Nc2cccc(S(=O)(=O)N3CCOCC3)c2)cc1,-18.8%
9,CCc1ccc(C2NC(=S)NC3=C2C(=O)CC(C)(C)C3)cc1 (stereo not drawn),16.5%
10,Cc1ccc(N=C2NC(=O)c3cc([N+](=O)[O-])ccc32)cc1,2.04%
11,O=C(O)/C(=C\c1ccccc1OC(F)F)Sc1nnc(-c2ccc(F)cc2)o1,-1.51%
12,CCCN(CCC)c1nc(C#N)nc(N(CCC)CCC)n1,1.68%
13,O=C(CCCn1nnc2ccccc2c1=O)N[C@@H](Cc1ccccc1)C(=O)O,16.8%
14,CCC(=O)Nc1cccc(-n2nnnc2SCC(=O)N2CCCCC2)c1,12%
15,CCO/N=C1\C(=O)N(c2ccccc2)c2ccccc21,7.81%
16,COc1cc(CNC2CCCC2)c(Br)cc1OC1CCCC1.Cl,-14.4%
17,O=C(/C=C\Nc1ccc2c(c1)OCO2)c1ccc(Cl)s1,27.4%
18,CCOc1cc2[nH]c(=S)n(Cc3ccc(C(=O)NCCCOC)cc3)c(=O)c2cc1OCC,19.8%
19,COc1ccc(CCNC(=O)CSCc2ccc(C)cc2)cc1OC,6.09%
20,O=C(NCC(c1cccs1)N1CCOCC1)c1ccc(Cl)c([N+](=O)[O-])c1 (stereo not drawn),1.49%
21,CCCOC1CCCN(C(=O)CCc2nnc(CCCCc3ccccc3)o2)C1 (stereo not drawn),6.37%

row,Compound,"hERG current change (%, negative = inhibition) at 1uM"
1,O=c1[nH]c2c(cnn2-c2ccc(Cl)cc2)c(=O)n1-c1cccc(Cl)c1,18.7%
2,O=C(NCc1ccccc1Cl)c1cc2c(s1)CS(=O)(=O)C2,13.2%
3,O=C(COc1ccccc1)Nc1ccc2c(c1)Cc1cc(NC(=O)COc3ccccc3)ccc1-2,9.04%
4,CCC1CCCCN1CCCNC(=O)c1ccc2c(c1)c(C)c(C)n2C (stereo not drawn),1.19%
5,CCc1nc(OCCN(CC)CC)c2oc3ccccc3c2n1.Cl,-24.2%
6,COc1ccc(N=C2S/C(=C\c3ccc(Cl)c([N+](=O)[O-])c3)C(=O)N2CCN(C)C)cc1.Cl,8.62%
7,OCC[C@@H]1C[C@@H](O)[C@H](O)[C@@]2(CCc3ccccc3O2)O1,17.1%
8,O=C(CN1C(=O)c2ccccc2C1=O)OCCOCCN=C1NS(=O)(=O)c2ccccc21,15.3%
9,CCN(CC)c1nc(C)c2c(c1C#N)CC(C)(C)OC2,12.5%
10,COC/C=C/C1=CC2=CC(=O)C(C)(OC(=O)c3cnc4ccccc4n3)C(=O)C2=CN1CCOC (stereo not drawn),12.8%
11,CCOc1ccc2nc(N(CCCN(C)C)C(=O)c3ccc(S(=O)(=O)N4CCc5ccccc5C4)cc3)sc2c1.Cl,-2.25%
12,CCOc1nc(SCCOc2ccc(C)cc2)nc(N(C)C)n1,2.68%
13,COc1ccc(-c2c(=O)n(OCc3ccccc3[N+](=O)[O-])c3ccccc3[n+]2[O-])c(OC)c1,8.63%
14,CCN(CC(=O)Nc1ccc(NC(C)=O)cc1)C(=O)/C=C/c1cn(-c2ccccc2)nc1-c1cccs1,2.79%
15,CN1CCN(C2=Nc3ccccc3Oc3ccc(Cl)cc32)CC1.O=C(O)CCC(=O)O,11.6%
16,CC1Cc2c([nH]c3ccccc23)C2c3ccccc3CN12 (stereo not drawn),1.73%
17,O=C1CC(=O)CC(c2ccccc2Cl)C1,13.3%
18,CC(=O)Nc1ccc(C)c(NS(=O)(=O)c2cccc(C(F)(F)F)c2)c1,14.2%
19,O=C(CNc1cccc(S(=O)(=O)N2CCOCC2)c1)Nc1ccccc1F,16.1%
20,Cn1c(CC(=O)Nc2ccccc2Cl)nnc1SCC(=O)Nc1nncs1,10.2%
21,O=C(O)c1ccc(OCC(O)Cn2cnc3ccccc32)cc1 (stereo not drawn),12.2%
